# Publication PMC6602471
# This is one part of the list. At the low end of the ranking the order means little.
# Biological target: T1, ELK1 (UniProt P19419)
# T1 sequence: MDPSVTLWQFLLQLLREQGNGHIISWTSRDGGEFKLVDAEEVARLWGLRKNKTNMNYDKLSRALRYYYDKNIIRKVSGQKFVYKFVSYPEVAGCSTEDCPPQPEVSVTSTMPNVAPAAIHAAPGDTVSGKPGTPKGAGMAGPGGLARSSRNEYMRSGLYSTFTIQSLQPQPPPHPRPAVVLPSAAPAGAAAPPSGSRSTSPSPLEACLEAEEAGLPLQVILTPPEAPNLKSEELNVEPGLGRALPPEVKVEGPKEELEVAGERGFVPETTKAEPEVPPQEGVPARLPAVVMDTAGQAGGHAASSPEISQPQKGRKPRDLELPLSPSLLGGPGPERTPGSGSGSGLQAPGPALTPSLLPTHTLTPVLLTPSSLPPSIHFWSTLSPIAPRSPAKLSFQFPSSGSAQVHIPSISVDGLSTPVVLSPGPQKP
# Assay: custom PBM
# Settings: custom protein-binding microarray; buffer, salt, pH and temperature not stated; high values mean tight binding; double strand, one strand shown
row,Sequence,binding signal (log fluorescence intensity)
1,CAGCATAGGACTTCTTGCCTGAAGCAATTGATAACCGTCTTGATTCGCTTGACGCTGCTG,8.74
2,GATTAATTTCTGCCCTTATTCGCACTTGCCATAACAGTCTTGATTCGCTTGACGCTGCTG,9.12
3,GGAAAAAGGCCCATGGTAACACCGGAAGTGGGCTTAGTCTTGATTCGCTTGACGCTGCTG,10.8
4,GCTGCTGCGGTGCTTACCCCACCGGATGTGACCCCGGTCTTGATTCGCTTGACGCTGCTG,10.2
5,TGTCGGGTAAGGGAATGTAGGTCACGTGAATGAAAAGTCTTGATTCGCTTGACGCTGCTG,9.06
6,TGTCGGGTAAGGGAATGTAGATCACGTGAATGAAAAGTCTTGATTCGCTTGACGCTGCTG,8.83
7,GCTGCTGCGGTGCATACCGCACCGGATGTGACCCCGGTCTTGATTCGCTTGACGCTGCTG,10.4
8,CAGAATTTTTACAGTAATGTAGCACGCGTAACTCCTGTCTTGATTCGCTTGACGCTGCTG,8.74
9,GTGTACAGGATCCCATCCAACACACGTGTTAAAATGGTCTTGATTCGCTTGACGCTGCTG,8.86
10,TAAAGGGAAGACGGTTGTGGTAGTACCGGGTATTAAGTCTTGATTCGCTTGACGCTGCTG,8.87
11,ACTGCTGCGGTGCATACCCCACCGGATGTGACCCCGGTCTTGATTCGCTTGACGCTGCTG,10.4
12,TAAAGGGAAGACGGTTGTGGTAGTTCCGGTTATTAAGTCTTGATTCGCTTGACGCTGCTG,11.6
13,GGAAAAAGGCCCAGGGTAACACCGGAAGTGGGTTTAGTCTTGATTCGCTTGACGCTGCTG,10.9
14,CGGAAGTGTCGTCAACGTCGGATATCCGGTTCTTCTGTCTTGATTCGCTTGACGCTGCTG,12.6
15,TGTCGGGTAAGGGAATGGAGATCACGTGAATGAAAAGTCTTGATTCGCTTGACGCTGCTG,8.91
16,GATTAATTTCTGCCCTTATTCGCACGTGCCATAAGAGTCTTGATTCGCTTGACGCTGCTG,8.87
17,TGTCGGGTAAGGGAATGTAGATCACGTGAATGCAAAGTCTTGATTCGCTTGACGCTGCTG,8.85
18,TCCGGCTACCAGCTCCACCCACTTCAGGCCTTTTAGGTCTTGATTCGCTTGACGCTGCTG,8.79
19,GATTAATTTCTGCCCTTTTTCGCACGTGCCATAACAGTCTTGATTCGCTTGACGCTGCTG,8.98
20,GGAAAAAGTCCCAGGGTAACACCGGAAGTGGGCTTAGTCTTGATTCGCTTGACGCTGCTG,11
21,TAAAGGGAAGACGGTTGTGGTAGTTCCGGGTATTCAGTCTTGATTCGCTTGACGCTGCTG,11.2

row,Sequence,binding signal (log fluorescence intensity)
1,GTGTATAGGATCCCATCCAGCACACGTGTTAAAATGGTCTTGATTCGCTTGACGCTGCTG,8.83
2,CAGCATAGGACTTCTTCCCTGAAGCAATCGATAACCGTCTTGATTCGCTTGACGCTGCTG,8.85
3,GCTGCTGCGGTGCATACCCCACCGGATGTGACCCCGGTCTTGATTCGCTTGACGCTGCTG,10.3
4,CACAATTTTTACAGTAATGTAGCACGCGGAACTCCTGTCTTGATTCGCTTGACGCTGCTG,8.97
5,GTGTATAGCATCCCATCCAACACACGTGTTAAAATGGTCTTGATTCGCTTGACGCTGCTG,8.8
6,GCTCCTGCGGTGCATACCCCACCGGATGTGACCCCGGTCTTGATTCGCTTGACGCTGCTG,10.3
7,TAAAGGAAAGACGGTTGTGGTAGTTCCGGGTATTAAGTCTTGATTCGCTTGACGCTGCTG,11.4
8,GGAAAAAGGCCCAGGGTAACACCGGATGTGGGCTTAGTCTTGATTCGCTTGACGCTGCTG,10.1
9,CAGCATAGGACTTCTTCCCTGAAGCAATTGACAACCGTCTTGATTCGCTTGACGCTGCTG,8.63
10,TACTGACTTATATATGCAAATGCACATGAATAGACCGTCTTGATTCGCTTGACGCTGCTG,8.9
11,CACAATTTTTACATTAATGTAGCACGCGTAACTCCTGTCTTGATTCGCTTGACGCTGCTG,8.97
12,CTGGGACTTGACCCAACTCTGCCACGTCGGTCGTTTGTCTTGATTCGCTTGACGCTGCTG,8.88
13,GATTAATTTCTGCCCTTATTCGCACGCGCCATAACAGTCTTGATTCGCTTGACGCTGCTG,8.96
14,GTGGATAGGATCCCATCCAACACACGTGTTAAAATGGTCTTGATTCGCTTGACGCTGCTG,8.92
15,CTCAATTTTTACAGTAATGTAGCACGCGTAACTCCTGTCTTGATTCGCTTGACGCTGCTG,8.95
16,TGTCGGGTAAGGGAATGTAGATCACGTGTATGAAAAGTCTTGATTCGCTTGACGCTGCTG,8.77
17,TCCGGCTACCAGCTCCACCCACTTCAGGCCCTGTAGGTCTTGATTCGCTTGACGCTGCTG,8.85
18,GATTAATTTCTGCCCTTATGCGCACGTGCCATAACAGTCTTGATTCGCTTGACGCTGCTG,8.84
19,CTAGGACTTGACCCAACTCTGCCACGTGGGTCGTTTGTCTTGATTCGCTTGACGCTGCTG,8.87
20,GGAAAAAGGCCCAGGGTAACACCGGAAGTGAGCTTAGTCTTGATTCGCTTGACGCTGCTG,10.8
21,CAGCATAGGACTTCTTCCCTGAAGCAATTGATAAACGTCTTGATTCGCTTGACGCTGCTG,8.83

row,Sequence,binding signal (log fluorescence intensity)
1,TAAAGGGAAGACGGTTGTGGTAGTTCCGGATATTAAGTCTTGATTCGCTTGACGCTGCTG,11.2
2,CTGGGACTTCACCCAACTCTGCCACGTGGGTCGTTTGTCTTGATTCGCTTGACGCTGCTG,8.85
3,TGTCGGGTAAGGGAATGTTGATCACGTGAATGAAAAGTCTTGATTCGCTTGACGCTGCTG,9
4,CACAATTTTTACAGTAATGTAGCACGCGTAACTCATGTCTTGATTCGCTTGACGCTGCTG,8.92
5,CACAATTTTTACAGTAATGTAGCACGCGTAACGCCTGTCTTGATTCGCTTGACGCTGCTG,8.92
6,CGGAAGTGTCGTAAACGTCGGATATCCGGTACTTCTGTCTTGATTCGCTTGACGCTGCTG,12.3
7,GGAAAAAGGCCCAGGGTAATACCGGAAGTGGGCTTAGTCTTGATTCGCTTGACGCTGCTG,10.9
8,CGGAAGTTTCGTAAACGTCGGATATCCGGTTCTTCTGTCTTGATTCGCTTGACGCTGCTG,12.1
9,TACTGACTTATACATGCGAATGCACATGAATAGACCGTCTTGATTCGCTTGACGCTGCTG,8.78
10,GATTAATTTCTGCCCCTATTCGCACGTGCCATAACAGTCTTGATTCGCTTGACGCTGCTG,8.76
11,CGGAAGTGTCGTAAACGTCGGATATCCTGTTCTTCTGTCTTGATTCGCTTGACGCTGCTG,10.4
12,CACAATTTTTACAGTAATGGAGCACGCGTAACTCCTGTCTTGATTCGCTTGACGCTGCTG,8.81
13,TGTCGGGCAAGGGAATGTAGATCACGTGAATGAAAAGTCTTGATTCGCTTGACGCTGCTG,9.09
14,GGAAAAATGCCCAGGGTAACACCGGAAGTGGGCTTAGTCTTGATTCGCTTGACGCTGCTG,11
15,CGGAAGTGTCGTAAACGTCGGATATCCGGTTCGTCTGTCTTGATTCGCTTGACGCTGCTG,12.4
16,CACAGTTTTTACAGTAATGTAGCACGCGTAACTCCTGTCTTGATTCGCTTGACGCTGCTG,8.91
17,GCTGCTGCGGTGCATACCCCACCGAATGTGACCCCGGTCTTGATTCGCTTGACGCTGCTG,8.9
18,GGTTAATTTCTGCCCTTATTCGCACGTGCCATAACAGTCTTGATTCGCTTGACGCTGCTG,8.97
19,TACTGTCTTATATATGCGAATGCACATGAATAGACCGTCTTGATTCGCTTGACGCTGCTG,8.83
20,GCTTAATTTCTGCCCTTATTCGCACGTGCCATAACAGTCTTGATTCGCTTGACGCTGCTG,9
21,TCCGGCTACCAGCTCCACCCACCTCAGGCCTTGTAGGTCTTGATTCGCTTGACGCTGCTG,8.76

row,Sequence,binding signal (log fluorescence intensity)
1,TAAAGGGAAGACGGTTGTGGTAGTTCCGGGTATCAAGTCTTGATTCGCTTGACGCTGCTG,11.1
2,GCTGCTGCGGTGCATACCCCACCGGATGTGACCGCGGTCTTGATTCGCTTGACGCTGCTG,10.3
3,GATTAATTTCTGCCCTTATTCGCACGTGACATAACAGTCTTGATTCGCTTGACGCTGCTG,8.89
4,TCCGGCTACCAGCTCCACCCACTTCAGGCCTTGTAGGTCTTGATTCGCTTGACGCTGCTG,8.96
5,GTGTATAGGGTCCCATCCAACACACGTGTTAAAATGGTCTTGATTCGCTTGACGCTGCTG,8.77
6,TACTGACTTATATATGCGAATGCACATGATTAGACCGTCTTGATTCGCTTGACGCTGCTG,9
7,GATTAATTTCTGCCCTTATTCGCACGTGCCCTAACAGTCTTGATTCGCTTGACGCTGCTG,8.97
8,GCTGCTGCGGTGCATACCCCACGGGATGTGACCCCGGTCTTGATTCGCTTGACGCTGCTG,8.82
9,TAAAGGGAAGACGGTTGTGGTAGTTCCGTGTATTAAGTCTTGATTCGCTTGACGCTGCTG,9.6
10,GCTACTGCGGTGCATACCCCACCGGATGTGACCCCGGTCTTGATTCGCTTGACGCTGCTG,10.2
11,GCTGATGCGGTGCATACCCCACCGGATGTGACCCCGGTCTTGATTCGCTTGACGCTGCTG,10.2
12,CGGAATTGTCGTAAACGTCGGATATCCGGTTCTTCTGTCTTGATTCGCTTGACGCTGCTG,12.8
13,TGTCGGGTAAGGGAAAGTAGATCACGTGAATGAAAAGTCTTGATTCGCTTGACGCTGCTG,9.03
14,CGGAAGTGTCGTAAACGTCGTATATCCGGTTCTTCTGTCTTGATTCGCTTGACGCTGCTG,11.3
15,GATTAATTTCTGGCCTTATTCGCACGTGCCATAACAGTCTTGATTCGCTTGACGCTGCTG,8.88
16,GCTGCTGCGGTGCATACCCCACCGGATGTGACCCAGGTCTTGATTCGCTTGACGCTGCTG,10.2
17,GACTGACTTATATATGCGAATGCACATGAATAGACCGTCTTGATTCGCTTGACGCTGCTG,8.81
18,TACTGACTTATATATGCGAATGCACATTAATAGACCGTCTTGATTCGCTTGACGCTGCTG,8.91
